# Screen size: about 310,000 compounds; about 2,200 (0.71%) showed an effect of 50% or more. Effects have a minus sign here. Some of the results follow. Where a SMILES comes first, the peptide text is derived from it. [ ]: non-standard residue; d: D form. The star is where a group is joined. Phg = N[CH](C(=O)O)c1ccccc1; Cbz = O=C(OCc1ccccc1)*
# Target: human ether-à-go-go-related gene (hERG) potassium channel (human, UniProt Q12809)
# Assay: primary screen, population patch clamp on CHO cells stably expressing hERG
# Chain of human ether-à-go-go-related gene (hERG) potassium channel (Q12809 whole entry, looked up): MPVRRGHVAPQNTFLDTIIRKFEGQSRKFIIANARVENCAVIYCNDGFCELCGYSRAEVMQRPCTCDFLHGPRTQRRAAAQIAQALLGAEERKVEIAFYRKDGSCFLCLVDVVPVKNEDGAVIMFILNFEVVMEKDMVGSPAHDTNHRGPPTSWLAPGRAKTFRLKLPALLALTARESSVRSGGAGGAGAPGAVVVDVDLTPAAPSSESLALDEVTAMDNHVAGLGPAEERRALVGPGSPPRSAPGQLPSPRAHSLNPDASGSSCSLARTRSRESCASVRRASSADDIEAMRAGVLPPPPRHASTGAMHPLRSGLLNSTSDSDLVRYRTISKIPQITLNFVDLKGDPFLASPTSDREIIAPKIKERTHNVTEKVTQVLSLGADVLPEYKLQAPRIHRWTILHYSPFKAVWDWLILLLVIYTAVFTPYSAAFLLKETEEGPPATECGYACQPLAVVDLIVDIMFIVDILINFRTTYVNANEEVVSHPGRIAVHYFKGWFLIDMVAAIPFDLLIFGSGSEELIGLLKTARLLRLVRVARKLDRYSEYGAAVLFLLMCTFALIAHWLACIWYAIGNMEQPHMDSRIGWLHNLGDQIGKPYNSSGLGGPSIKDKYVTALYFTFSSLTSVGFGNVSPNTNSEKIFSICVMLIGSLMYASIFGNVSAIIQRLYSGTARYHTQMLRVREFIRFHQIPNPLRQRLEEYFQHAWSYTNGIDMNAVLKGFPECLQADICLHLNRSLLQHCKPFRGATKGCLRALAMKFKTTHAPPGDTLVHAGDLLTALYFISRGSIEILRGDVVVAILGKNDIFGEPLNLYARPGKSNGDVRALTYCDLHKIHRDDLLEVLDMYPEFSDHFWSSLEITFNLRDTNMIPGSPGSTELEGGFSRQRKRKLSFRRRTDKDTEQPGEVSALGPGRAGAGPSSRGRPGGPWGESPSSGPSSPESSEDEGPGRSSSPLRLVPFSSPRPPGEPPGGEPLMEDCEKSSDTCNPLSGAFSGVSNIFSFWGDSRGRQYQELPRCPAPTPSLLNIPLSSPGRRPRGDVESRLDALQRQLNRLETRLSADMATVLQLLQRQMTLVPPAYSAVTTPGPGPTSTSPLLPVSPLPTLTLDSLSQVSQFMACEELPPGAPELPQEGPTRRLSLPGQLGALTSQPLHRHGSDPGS
row,SMILES,"hERG current change (%, negative = inhibition) at 1uM"
1,Nc1c(C(=O)NC2CCCC2)c2nc3ccccc3nc2n1CC1CCCO1 (stereo not shown),4.79%
2,COc1ccc(NC(=O)c2cn(CCC#N)nc2-c2cc3ccccc3o2)cc1,-0.96%
3,C/C(=N\NC1=NCCN1)c1ccccc1,15.8%
4,CC(C)(C)NC(=O)N1CCC(CO)(Cc2ccccc2Cl)CC1,7.38%
5,O=C(CCCC(=O)Nc1ccccc1Br)N/N=C/c1c(F)cccc1Cl,7.28%
6,Cc1c(CNCc2cccs2)c(C(=O)O)c(C)n1Cc1ccccc1,-3.44%
7,CCN(CC)C(=O)c1sc2[nH]c(=S)n(-c3ccccc3)c(=O)c2c1C,10.7%
8,NC(=O)C1CCN(c2nc(-c3ccc4ccccc4c3)cs2)CC1,10.7%
9,C=CCn1c(SCCOC)nc2c1c(=O)[nH]c(=O)n2C,10.8%
10,CC1CCCCC12NC(=O)N(CC(=O)N1CCN(C(=O)c3ccco3)CC1)C2=O (stereo not shown),1.82%
11,CCC(C)[C@H](NC(=O)Nc1ccc(S(N)(=O)=O)cc1)C(=O)O (stereo partly shown),7.38%
12,COc1cccc(NC(=O)CN(C)C(=O)c2c(C)nn(-c3ccccc3)c2Cl)c1,14.7%
13,CCC(=O)N(C)CCc1cc2c(c(OC)c1/C=N/NC(=O)c1ccccc1O)OCO2,4.94%
14,Cc1ccc(NC(=O)COC(=O)C(NS(=O)(=O)c2ccc(Cl)cc2)C(C)O)c(Br)c1 (stereo not shown),11.1%
15,COc1ccccc1N1CCN(C2CC(=O)N(c3cccc(Br)c3)C2=O)CC1 (stereo not shown),-17.9%
16,O=C(CN1C(=O)C2C3C=CC(C3)C2C1=O)N1CC(=O)N(CCc2ccccc2)C(=O)C1 (stereo not shown),2.8%
17,Cc1nn(-c2ccccc2)c(Cl)c1/C=C1\SC(=S)NC1=O,22.4%
18,OCCC1CN(CCCc2ccccc2)CCN1CCc1ccccc1 (stereo not shown),-32.3%
19,CC(C)CN(C(=O)CSc1nncn1-c1ccccc1)c1c(N)n(CC(C)C)c(=O)[nH]c1=O,9.44%
20,Cc1cccc2cc(C#N)c(SCC(=O)N3CCC(C)CC3)nc12,-1.44%
21,O=C(NC(=S)N1CCN(c2ccc(Cl)cc2[N+](=O)[O-])CC1)c1ccco1,-33.1%
22,O=C(COC(=O)C1CCN(C(=O)Nc2ccccc2)CC1)NCC(F)(F)F,19.8%

row,SMILES,"hERG current change (%, negative = inhibition) at 1uM"
1,O=c1cc(-c2ccc(O)c(-c3c(O)cc(O)c4c(=O)cc(-c5ccc(O)cc5)oc34)c2)oc2cc(O)cc(O)c12,-3.17%
2,CCOc1ccccc1N1CCN(Cc2ccco2)CC1,-2.6%
3,COC(=O)C1=CN(Cc2ccc(C)cc2)C=C(C(=O)OC)C1c1ccc(F)c(F)c1,9.17%
4,Cc1cc(C)cc(N(C(=O)CNC(=O)c2ccco2)C(C(=O)NC2CCCCC2)c2cccnc2)c1 (stereo not shown),17.8%
5,CCN(CC(=O)Nc1c(F)cccc1F)C(=O)Cc1csc(-c2ccccc2)n1,1.91%
6,Fc1ccc(-[n+]2nc(Nc3ccccc3)sc2-c2cccc(Cl)c2Cl)cc1.[Cl-],6.23%
7,CC1CCCCC1NC(=O)c1cccc(NC2=NC3CS(=O)(=O)CC3S2)c1 (stereo not shown),2.53%
8,C/C(=N\O)C(C)(C)Nc1ccc(Cl)cc1,10.9%
9,COc1cc(NC(=O)COC(=O)CO/N=C(\C)c2ccc3c(c2)OCO3)cc(OC)c1OC,21%
10,Cc1sc2nc(CN3CCOCC3)[nH]c(=O)c2c1-c1ccccc1,7.06%
11,O=C(COc1ccccc1Cl)Nc1nnc(S(=O)(=O)N2CCCCCC2)s1,9.78%
12,CCOC(=O)COn1c(=O)c(-c2ccc(F)cc2)[n+]([O-])c2ccccc21,7.95%
13,CCOc1ccccc1NC(=S)Nn1cnnc1,13.6%
14,Cc1c(C(=O)OCc2ccccc2)nnn1-c1nonc1N,6.92%
15,COc1ccc(/C=N/NC(=O)c2cc(-c3ccccc3)nc3ccccc23)c(C(=O)O)c1OC,13.2%
16,O=C(Cc1ccccc1)N1CCN=C1SCc1cccc([N+](=O)[O-])c1,7.52%
17,COc1ccc(CNC(=O)NCCc2c[nH]c3ccccc23)cc1,13.3%
18,Nc1ccccc1SSc1ccccc1N,18%
19,COC(=O)C(Cc1ccc(O)cc1)NC(=O)C(C)NC(=O)c1ccc(C(C)(C)C)cc1 (stereo not shown),5.84%
20,COc1ccc(CNC(=O)CN2C(=O)COc3ccc(S(=O)(=O)N4CCC(C)CC4)cc32)cc1,21.1%
21,Cc1nc(SCC(=O)NC(=O)NC2CCCCC2)nc(C)c1C,10.8%
22,COCCNC(=S)NN=C1CCCCC1,5.44%

row,SMILES,"hERG current change (%, negative = inhibition) at 1uM"
1,Nc1ccc(Oc2ncccn2)cc1,15.4%
2,O=C(CCCN1C(=O)S/C(=C\C=C\c2ccccc2)C1=O)Nc1ccc(O)cc1,11%
3,O=C(c1ccco1)N1CCN(C(=O)C2CC(=O)N(c3ccc(Cl)cc3)C2)CC1 (stereo not shown),-80.2%
4,O=C(Nc1cccnc1)c1ccccc1-c1nc(-c2ccccc2F)no1,-10.3%
5,O=C(COC(=O)c1cncc(Br)c1)Nc1ccc2c(c1)OCO2,2.92%
6,O=C1C(=O)N(CNc2cccnc2)c2ccccc21,11.9%
7,O=C(O)C(NC(=O)C1CCCN1C(=O)OCc1ccccc1)c1ccccc1 (stereo not drawn) (Cbz-Pro-[Phg]-OH; configuration not given here),14.6%
8,Cc1c(C(=O)Nc2ccc3c(c2)CCC3)cccc1[N+](=O)[O-],1.46%
9,O=C(CSCCO)Nc1cccc2ccccc12,10.1%
10,CC(C)C[C@H]1COCCS(=O)(=O)N1Cc1cccc(F)c1,16.7%
11,CC(C)(C)C1CCC(OC(=O)C[N+]2(C)CCCC2)CC1.[I-] (stereo not shown),15%
12,Cc1nc2c(c(C)nn2-c2ccccc2)c(C)c1CCC(=O)NCCCOC(C)C,-1.06%
13,CN(CCC#N)C(=O)COc1ccc(Br)cc1Cl,3.5%
14,COc1ccc(Br)cc1C(=O)Nc1cccc(NC(=O)c2ccco2)c1,-1.61%
15,COc1ccc(-c2ccc(/C=N/N3C(=O)C4C5C=CC(C6CC56)C4C3=O)o2)c([N+](=O)[O-])c1 (stereo not shown),-2.46%
16,O=c1c2cnn(-c3ccccc3)c2ncn1Cc1cccnc1,11.4%
17,Br.C1=C(c2ccco2)N2CCN=C2S1,11.3%
18,Cc1cccc(Cn2c(C(C)O)nc3ccccc32)c1 (stereo not shown),9.66%
19,CC(C)(C)N1CC23C=CC(C[C@@H]2C1=O)O3 (stereo partly shown),-0.349%
20,Fc1cccc(CCN2CCNC[C@@H]2CC2CCCCC2)c1,1.12%
21,COc1ccc2cc3c(N)c(C(=O)NCc4ccco4)sc3nc2c1,1.04%
22,Cc1cccc(NC(=O)c2ccc(-n3cccn3)c([N+](=O)[O-])c2)c1,3.7%

row,SMILES,"hERG current change (%, negative = inhibition) at 1uM"
1,CCOC(=O)[C@@H]1[C@H]2COc3ccccc3[C@@H]2N2C(=O)N(c3ccc(OC)cc3)C(=O)[C@]12C,-4.92%
2,CC(C)CCn1c(Cl)nc2c1c(=O)n(C)c(=O)n2C,10.8%
3,CC(C)(C)NS(=O)(=O)c1ccc(CCC(=O)NCc2ccc3c(c2)OCO3)cc1,-4.5%
4,COc1cccc(/C=C/C(=O)NNC(=O)CCN2CCN(Cc3ccccc3)CC2)c1,-7.16%
5,O=C(NC1CCCCC1)C(=S)N1CCOCC1,7.11%
6,COc1ccc(NC(=O)CSCC(=O)Nc2ccccc2C(=O)N2CCCCC2)cc1,11%
7,O=C(CCl)N1N=C(c2ccco2)CC1c1cccs1 (stereo not shown),7.99%
8,CC(Oc1cc(C(F)(F)F)cc(C(F)(F)F)c1)C(=O)NC(N)=O (stereo not shown),-0.401%
9,COc1cc(Br)cc(C=Nc2cccc(C(F)(F)F)c2)c1O,13.5%
10,O=C(OCn1ncc(Br)c(Br)c1=O)c1c(F)cccc1F,5.29%
11,COc1ccc(-c2nnc(SCc3cccnc3)o2)cc1,-0.205%
12,COc1cc2c(cc1OC)CC(=O)NC=C2,3.4%
13,O=C1C(=O)N(CCO)C(c2cccc(F)c2)/C1=C(\O)c1ccc(Cl)cc1 (stereo not shown),-0.365%
14,COc1cc2c(cc1OC)C(c1cc(C)ccc1C)CC(=O)N2 (stereo not shown),12.5%
15,Cc1cc(C)c(NC(=S)NCCCSC2CCCCC2)c(C)c1,10.7%
16,O=C(CNC(=O)c1ccc(Cl)cc1Cl)NCc1ccccn1,13.2%
17,Cc1cc2c(=O)n(C)c(SCC(=O)Nc3cccc(O)c3)nc2s1,8.14%
18,CCN(CC)C(=O)Cn1cnc2sc(C(=O)Nc3cc(OC)c(OC)c(OC)c3)c(C)c2c1=O,11.3%
19,COC(=O)c1ccc(C23CC4(C2)[C@H](CN(C)[C@@H]4c2ccccc2)C3c2ccccc2)cc1 (stereo partly shown),11.7%
20,O=C(O)CCCSc1nccn1-c1ccccc1,16%
21,CN1CCN(C(=O)c2ccc3c(c2)N(Cc2ccccc2)CCS3)CC1,0.919%
22,O=C(NCc1ccc(Cl)cc1)N1CCc2ccccc2C1,15.2%
